Measured values: the antibiotic and cytotoxicity screens of Wong et al. (2023)
The other results are listed elsewhere or left out.

Each compound was assayed on HSkMC (human skeletal muscle cells) (assay: cytotoxicity call (relative viability < 0.9)). Settings: 10 µM.
In the case of `COc1ccc(CN(C)C[C@@H]2OCCCC[C@H](C)Oc3ccc(NS(=O)(=O)c4ccc(C)cc4)cc3C(=O)N([C@H](C)CO)C[C@H]2C)cc1`, the cytotoxicity call is reported as “inactive”. For `C[C@@H]1CN([C@@H](C)CO)C(=O)c2cc(NC(=O)Nc3cccc4ccccc34)ccc2O[C@@H](C)CCCCO[C@@H]1CN(C)S(=O)(=O)c1cn(C)cn1`, the cytotoxicity call was “inactive”. For `CCO[C@@H]1OC(C(=O)N2CCN(Cc3ccc4c(c3)OCO4)CC2)=C[C@H](c2csc3ccccc23)[C@H]1CCCOC(=O)NCCCCCC(=O)NO`, the cytotoxicity call was “inactive”. For `C[C@@H]1CN([C@@H](C)CO)C(=O)c2cc(NC(=O)C3CCCCC3)ccc2O[C@@H](C)CCCCO[C@H]1CN(C)C(=O)Cc1ccccc1`, the cytotoxicity call was “inactive”. For `NCc1ccc2nsnc2c1`, the cytotoxicity call was “inactive”. With `C[C@@H]1CN([C@@H](C)CO)C(=O)c2c(c3ccccc3n2C)-c2ccccc2CO[C@H]1CN(C)Cc1ccccc1C(F)(F)F` the cytotoxicity call was “active”. `Cc1ccc(S(=O)(=O)N[C@H]2CC[C@@H](CC(=O)NCc3ccc(Cl)c(Cl)c3)O[C@@H]2CO)cc1` was tested, and the cytotoxicity call was “inactive”. In the case of `CC(=O)c1cc(Cl)c(C)cc1O`, the cytotoxicity call is reported as “inactive”. With `O=C(C[C@@H]1C=C[C@H](NC(=O)Nc2cc(F)ccc2F)[C@H](CO)O1)NCCCN1CCOCC1` the cytotoxicity call was “inactive”. In the case of `COC(=O)c1c(C)cc(OC(=O)c2c(C)cc(O)c(CO)c2O)c(C)c1O`, the cytotoxicity call is reported as “inactive”. `C[C@@H]1CN([C@H](C)CO)C(=O)c2cccc(NC(=O)c3ccncc3)c2O[C@@H]1CN(C)C(=O)Nc1ccc2c(c1)OCO2` was tested, and the cytotoxicity call was “inactive”. In the case of `COc1ccc(CN2C[C@H](C)[C@@H](OC)CN(C)C(=O)c3ccc(NC(=O)c4nc5ccccc5s4)cc3OC[C@H]2C)cc1`, the cytotoxicity call is reported as “inactive”. For `O=C(O)CCNC(=O)c1ccccc1`, the cytotoxicity call was “inactive”. In the case of `C[C@H]1CN([C@@H](C)CO)C(=O)c2cccc(NC(=O)Nc3cccc4ccccc34)c2O[C@H]1CN(C)C(=O)NC1CCCCC1`, the cytotoxicity call is reported as “inactive”. In the case of `COc1ccc(CN(C)C[C@H]2Oc3ccc(NS(=O)(=O)c4c(C)noc4C)cc3C(=O)N([C@@H](C)CO)C[C@@H]2C)cc1`, the cytotoxicity call is reported as “inactive”. With `C[C@H](CO)N1C[C@H](C)[C@H](CN(C)Cc2ccc3c(c2)OCO3)OCCCC[C@H](C)Oc2ccc(NC(=O)Nc3ccc4c(c3)OCO4)cc2C1=O` the cytotoxicity call was “inactive”. For `Cc1cc(C(=O)Nc2cccc3c2O[C@H](CN(C)C(=O)Nc2ccc4c(c2)OCO4)[C@@H](C)CN([C@@H](C)CO)C3=O)n(C)n1`, the cytotoxicity call was “inactive”. In the case of `COc1ccc(S(=O)(=O)N2C[C@H](O)COC[C@@H]3O[C@@H](CC(=O)NCCCN(C)C)CC[C@H]32)cc1`, the cytotoxicity call is reported as “inactive”. With `C[C@@H]1CN([C@@H](C)CO)C(=O)c2cc(NC(=O)CCN3CCOCC3)ccc2O[C@H]1CN(C)C(=O)Nc1ccccc1` the cytotoxicity call was “inactive”. `Cc1noc(C)c1NC(=O)Nc1ccc2c(c1)CC(=O)N([C@@H](C)CO)C[C@H](C)[C@H](CN(C)C(=O)NC(C)C)O2` was tested, and the cytotoxicity call was “inactive”. `CC(C)NC(=O)N(C)C[C@H]1Oc2ccc(NC(=O)NC3CCCCC3)cc2CC(=O)N([C@H](C)CO)C[C@H]1C` was tested, and the cytotoxicity call was “inactive”. In the case of `COc1ccc2c3c(n(c2c1)C)[C@@H](CO)N(C[C@]13CCN(CC1)C(=O)c1ccccn1)C(=O)c1ccccn1`, the cytotoxicity call is reported as “inactive”. For `CC(C)=CCCC1(C)C=Cc2c(O)c3c(c(CC=C(C)C)c2O1)OC12C(=CCCC1C(C)(C)OC2(CC=C(C)C(=O)O)C(=O)O)C3=O` (stereo unspecified), the cytotoxicity call was “inactive”. `C[C@H](CO)N1C[C@H](C)[C@H](CN(C)C(=O)Nc2ccccc2)Oc2c(NS(C)(=O)=O)cccc2C1=O` was tested, and the cytotoxicity call was “inactive”. In the case of `CC(C)NC(=O)Nc1ccc2c(c1)C(=O)N([C@H](C)CO)C[C@H](C)[C@@H](CN(C)Cc1ccc(Cl)c(Cl)c1)OCCCC[C@@H](C)O2`, the cytotoxicity call is reported as “inactive”. In the case of `C[C@@H]1CCCCO[C@@H](CN(C)S(C)(=O)=O)[C@@H](C)CN([C@@H](C)CO)C(=O)c2cc(NS(=O)(=O)c3ccccc3)ccc2O1`, the cytotoxicity call is reported as “inactive”. With `COc1ccc(NC(=O)N(C)C[C@H]2OCCCC[C@H](C)Oc3ccc(NC(=O)NC(C)C)cc3C(=O)N([C@H](C)CO)C[C@@H]2C)cc1` the cytotoxicity call was “inactive”. In the case of `NCCN1CCO[C@@H](CC(=O)Nc2cc(Cl)cc(Cl)c2)C1=O`, the cytotoxicity call is reported as “inactive”. In the case of `N#CC1CC2CC2N1C(=O)C(N)C12CC3CC(CC(O)(C3)C1)C2` (stereo unspecified), the cytotoxicity call is reported as “inactive”. In the case of `COc1ccc2c3c(n(c2c1)C)[C@H](CO)N(Cc1cc(cc(c1)OC)OC)C[C@]13CN(C1)C(=O)NC(C)C`, the cytotoxicity call is reported as “inactive”. `C[C@H]1CCCCO[C@H](CN(C)C(=O)Cc2ccccc2)[C@@H](C)CN([C@@H](C)CO)C(=O)c2cc(NC(=O)Nc3ccc(F)cc3)ccc2O1` was tested, and the cytotoxicity call was “inactive”.
